Assay results taken from article PMC6386991 (International Journal of Molecular Sciences, 2019).
Like-named read-outs stand apart in the source and are kept apart here.

Assays:
[1] = target: T1, electric eel AChE (EeAChE) (Electrophorus electricus, UniProt O42275); test: biochemical
[2] = target: T2, equine serum BuChE (EqBuChE) (Equus caballus, UniProt P81908); test: biochemical
T2 construct: equine serum BuChE (EqBuChE); from tissue; host or cells: equine serum

[3] = DPPH free-radical scavenging assay; settings: read-out: DPPH FRS50 ± SD
[4] = ABTS radical scavenging assay; settings: for EC50: read-out: ABTS FRS50 ± SD
[5] = target: T1, electric eel AChE (EeAChE); settings: IC50(BuChE)/IC50(AChE)
[6] = Experimental Properties, calibration substances; cited from earlier work
[7] = Experimental Properties, calibration substances; cited from earlier work; remark: listed apart in the source
SH-SY5Y cells [8] = test: Neuroprotection against rotenone/oligomycin A, co-incubation, MTT; settings: R/O mixture, compound 0.001 µM
SH-SY5Y cells [9] = test: Neuroprotection against oxidative stress, H2O2, MTT; settings: Homo sapiens, read-out: % cell viability
[10] = test system: CCL-110 cell line (normal, human fibroblasts derived from skin); test: In vitro cytotoxicity assay (MTT) on CCL-110; settings: positive control, pure methanol
[11] = means ± SD of three independent experiments

T2 sequence (P81908 whole entry): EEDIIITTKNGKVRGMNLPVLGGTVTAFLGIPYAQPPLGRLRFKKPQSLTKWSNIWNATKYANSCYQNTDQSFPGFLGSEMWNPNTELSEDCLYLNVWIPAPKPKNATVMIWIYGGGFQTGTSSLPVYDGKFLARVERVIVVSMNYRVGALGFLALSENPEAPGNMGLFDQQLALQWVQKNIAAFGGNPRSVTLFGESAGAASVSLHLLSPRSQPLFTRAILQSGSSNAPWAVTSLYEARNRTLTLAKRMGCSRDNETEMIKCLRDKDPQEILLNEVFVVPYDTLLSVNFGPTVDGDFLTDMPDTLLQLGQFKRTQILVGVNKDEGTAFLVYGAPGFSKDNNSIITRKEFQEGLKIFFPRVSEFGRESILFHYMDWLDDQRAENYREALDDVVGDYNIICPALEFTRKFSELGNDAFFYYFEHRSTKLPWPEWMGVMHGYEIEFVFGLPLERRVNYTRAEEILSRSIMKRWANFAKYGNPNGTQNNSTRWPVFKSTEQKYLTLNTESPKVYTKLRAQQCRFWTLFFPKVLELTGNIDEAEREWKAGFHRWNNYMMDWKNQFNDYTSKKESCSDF
T1 sequence (O42275 24-633): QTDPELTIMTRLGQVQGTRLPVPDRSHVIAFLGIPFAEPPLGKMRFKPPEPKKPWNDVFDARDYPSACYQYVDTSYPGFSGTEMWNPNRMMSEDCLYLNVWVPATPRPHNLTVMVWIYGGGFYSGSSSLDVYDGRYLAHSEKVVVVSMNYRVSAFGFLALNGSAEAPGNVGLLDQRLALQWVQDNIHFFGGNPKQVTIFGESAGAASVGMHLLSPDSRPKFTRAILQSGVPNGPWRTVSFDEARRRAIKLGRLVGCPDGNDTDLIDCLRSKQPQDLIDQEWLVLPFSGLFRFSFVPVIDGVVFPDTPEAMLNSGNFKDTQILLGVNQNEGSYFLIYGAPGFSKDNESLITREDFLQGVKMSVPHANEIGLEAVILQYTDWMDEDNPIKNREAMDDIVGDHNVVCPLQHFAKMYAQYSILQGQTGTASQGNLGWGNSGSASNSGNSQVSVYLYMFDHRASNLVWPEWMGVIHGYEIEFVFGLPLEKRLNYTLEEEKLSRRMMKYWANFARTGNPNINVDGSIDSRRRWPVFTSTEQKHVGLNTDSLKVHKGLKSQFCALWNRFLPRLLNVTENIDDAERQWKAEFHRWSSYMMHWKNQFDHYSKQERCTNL

Cl.O=C(NCCNc1c2c(nc3ccccc13)CCC2)c1ccc(Cl)nc1 [Compound 3a, 6-chloro-N-[2-(2,3-dihydro-1H-cyclopenta[b]quinolin-9-ylamino)ethyl]pyridine-3-carboxamide hydrochloride]
IC50 [1]: 0.453 ± 0.018 µM | Selectivity for BuChE ([2]; IC50(AChE)/IC50(BuChE)): 3.6 | IC50 [2, 11]: 0.124 ± 0.037 µM | EC50 [3]: 14300 ± 1460 µM | EC50 [4]: 3100 ± 180 µM | Selectivity for AChE [5]: 0.3

Cl.O=C(NCCCNc1c2c(nc3ccccc13)CCC2)c1ccc(Cl)nc1 [Compound 3b, 6-chloro-N-[3-(2,3-dihydro-1H-cyclopenta[b]quinolin-9-ylamino)propyl]pyridine-3-carboxamide hydrochloride]
IC50 [1]: 0.245 ± 0.038 µM | Selectivity for BuChE ([2]; IC50(AChE)/IC50(BuChE)): 0.4 | IC50 [2, 11]: 0.618 ± 0.043 µM | EC50 [3]: > 20000 µM | EC50 [4]: 1900 ± 300 µM | times less active than the reference compound (ABTS) ([4]; versus trolox): 48 times | Selectivity for AChE [5]: 2.5

O=C(NCCCCNc1c2c(nc3ccccc13)CCC2)c1ccc(Cl)nc1 [Compound 3c]
IC50 [1]: 0.589 ± 0.072 µM | Selectivity for BuChE [2]: 0.9 | IC50 ([2]; read-out: BuChE IC50 ± SD): 0.662 ± 0.053 µM | EC50 [3]: > 20000 µM | EC50 [4]: 3600 ± 660 µM | Selectivity for AChE [5]: 1.1

O=C(NCCCCCNc1c2c(nc3ccccc13)CCC2)c1ccc(Cl)nc1 [Compound 3d]
IC50 [1]: 0.162 ± 0.018 µM | Selectivity for BuChE [2]: 0.3 | IC50 ([2]; read-out: BuChE IC50 ± SD): 0.534 ± 0.023 µM | EC50 [3]: > 20000 µM | EC50 [4]: 4800 ± 660 µM | Selectivity for AChE [5]: 3.3

O=C(NCCCCCCCNc1c2c(nc3ccccc13)CCC2)c1ccc(Cl)nc1 [Compound 3f]
IC50 [1]: 0.074 ± 0.004 µM | Selectivity for BuChE [2]: 1.2 | IC50 ([2]; read-out: BuChE IC50 ± SD): 0.062 ± 0.003 µM | EC50 [3]: > 20000 µM | EC50 [4]: 10500 ± 1790 µM | Selectivity for AChE [5]: 0.8

O=C(NCCCCCCCCNc1c2c(nc3ccccc13)CCC2)c1ccc(Cl)nc1 [Compound 3g]
IC50 [1]: 0.073 ± 0.005 µM | IC50 ([2]; read-out: BuChE IC50 ± SD): 0.042 ± 0.006 µM | EC50 [3]: > 20000 µM | EC50 [4]: 4800 ± 340 µM | Selectivity for AChE [5]: 0.6

O=C(NCCCCCCCCCNc1c2c(nc3ccccc13)CCC2)c1ccc(Cl)nc1 [Compound 3h]
IC50 [1]: 0.071 ± 0.005 µM | Selectivity for BuChE [2]: 0.8 | IC50 ([2]; read-out: BuChE IC50 ± SD): 0.094 ± 0.006 µM | EC50 [3]: > 20000 µM | EC50 [4]: > 20000 µM | Selectivity for AChE [5]: 1.3

CC(CN1c2ccccc2Sc2ccccc21)N(C)C.Cl (stereo not drawn) [Prometazine HCl]
pKa [6]: 9.1 [17]

NC(=O)c1ccccc1O [Salicynamide]
pKa [6]: 8.37 [18] | logP [7]: 1.28

Nc1c2c(nc3ccccc13)CCCC2 [THA, Tacrine, reference compound]
EC50 [3]: > 20000 µM | EC50 [4]: > 20000 µM | viability at 24 h, 10 µM (in vitro): 90%

CSc1ccc2c(c1)N(CCC1CCCCN1C)c1ccccc1S2.Cl (stereo not drawn) [Thiorydazine HCl]
pKa [6]: 9.5 [20] | logP [7]: 5.9

Cc1c(C)c2c(c(C)c1O)CCC(C)(C(=O)O)O2 (stereo not drawn) [Trolox]
EC50 [3]: 4.9 ± 0.4 µM | EC50 [4]: 40 ± 6 µM | neuroprotection (SH-SY5Y cells [8]): 5.60% | viability at 0.01 µM (SH-SY5Y cells [9]): 96.4% | viability at 0.1 µM (SH-SY5Y cells [9]): 98.6% | viability at 10 µM (SH-SY5Y cells [9]): 99.2%

CO [methanol, reference compound]
cells viability [10]: 22%
